Laboratory results published in PubChem BioAssay AID463173 (ICCB-Longwood Screening Facility, Harvard Medical School, 2010).
Hit rate of the full screen: of about 52,000 compounds, about 4,300 (8.3%) were called active. Rule as the data show it: active = survival mostly below about 52% (no sharp cut-off); inactive = mostly above about 56%. The list shows a part of the results.

These molecules were tested on DeltatarO mutant (assay: growth inhibition of S. aureus wild type versus tarO mutant, primary screen, teichoic acid synthesis inhibitors, RN4220, OD600 (AID 463173)). Conditions: OD600, 18 h, hits give low values, screened at 18.75 µg/mL (by protocol).

Row | Structure (SMILES) | survival
1 | COCCNC(=O)CN1C(=O)COc2ccc(S(=O)(=O)N3CCCCCC3)cc21 | inactive: 87%
2 | CCC(C(=O)NC1CCCCC1)n1c(SCc2ccccc2F)nc2ccncc21 (stereo unspecified) | inactive: 67%
3 | c1cnc(N2CCN(c3ncc4c(n3)CCNC4)CC2)nc1 | inactive: 122%
4 | O=C(CN1CCN(c2ccc(F)cc2)CC1)N1CCCC1 | inactive: 83%
5 | COc1ccc(OC)c(-n2nnc(-c3nc(-c4cc(OC)c(OC)c(OC)c4)no3)c2C)c1 | inactive: 75%
6 | O=c1oc2c3c(ccc2c2ccccc12)OCN(Cc1ccc(Cl)cc1)C3 | inactive: 66%
7 | COc1ccc(-c2nc3ccccc3n3c(-c4ccccc4)c4c(=O)n(C)c(=O)n(C)c4c23)cc1OC | inactive: 72%
8 | O=c1cccc2n1CC1CC(C2)N(c2nc(N3CCCCC3)nc(N3CCCCC3)n2)C1 (stereo unspecified) | inactive: 74%
9 | COc1ccc(OCC2CNC(=O)O2)cc1 (stereo unspecified) | inactive: 61%
10 | Cc1ccc(CNC(=O)c2ccc(Cn3c(=O)c4ccccc4n(CC(=O)Nc4c(C)cc(C)cc4C)c3=O)cc2)cc1 | inactive: 81%
11 | O=C(Cc1cccs1)N(c1nnc(-c2ccc(F)cc2)s1)C1CCCC1 | inactive: 106%
12 | CC(C)(N)COc1nonc1N | inactive: 94%
13 | CCOc1ccc2nc(NCCCNC(=O)C3CCCO3)c(C#N)cc2c1 (stereo unspecified) | inactive: 83%
14 | CC(=O)N1CCc2cc(S(=O)(=O)NC(Cc3ccccc3)C(=O)Nc3cc(C)ccc3C)ccc21 (stereo unspecified) | inactive: 74%
15 | CCOc1ccc(C(=O)Nc2ccc3nc(SCC(=O)N4CCc5ccccc54)sc3c2)cc1 | inactive: 58%
16 | CC1=C(c2ccc(C)cc2)S(=O)(=O)N(Cc2ccc(C(=O)Nc3ccc(C)c(F)c3)cc2)C1=O | inactive: 62%
17 | NC(=O)CSc1ncc2c(n1)-c1ccccc1N(Cc1ccc(F)cc1)S2(=O)=O | inactive: 94%
18 | CN1C(=O)c2ccccc2Sc2ccc(NC(=O)N3CCN(c4ccccc4)CC3)cc21 | inactive: 93%
19 | O=C(NCc1ccccc1)c1cccn1-c1nnc(N2CCCC2)s1 | inactive: 55%
20 | CC(=O)N1c2ccccc2C(C)(c2ccc(C)cc2)CC1(C)C (stereo unspecified) | active: -4%
21 | COc1ccc(N2CCN(C(=O)c3cccc4ccccc34)CC2)cc1 | inactive: 66%
22 | COc1cc2c(cc1OC)C(COc1ccc3c(C)cc(=O)oc3c1)N(C(=O)c1ccccc1C)CC2 (stereo unspecified) | inactive: 121%
23 | COCCn1c(=O)[nH]c2cc(C(=O)N3CCN(c4ccccc4)CC3)ccc2c1=O | inactive: 76%

Row | Structure (SMILES) | survival
24 | CCOC(=O)C1CCCN(CC(=O)Nc2cc(C)c3c(=O)oc4ccccc4c3n2)C1 (stereo unspecified) | inactive: 64%
25 | O=c1oc2ccc3ccccc3c2cc1-c1nnc(Nc2ccccc2F)s1 | inactive: 74%
26 | CCCSc1nc(-c2ccccc2)[nH]c1S(=O)(=O)c1ccc(C)cc1 | inactive: 55%
27 | COc1ccc(-c2n[nH]c3c2cnc2ccc(F)cc23)cc1 | inactive: 135%
28 | Cc1ccc(-c2c(C(=O)NCCc3ccccc3)oc(=O)c3ccccc23)cc1 | inactive: 91%
29 | COc1ccc(-c2cc3ccc(O)c(CN4CCCC4)c3oc2=O)cc1 | inactive: 123%
30 | N#C/C(=C\c1ccc(-c2cccc(Cl)c2)o1)C(N)=O | inactive: 99%
31 | COc1ccc2c(c1)c1c(c(=O)n(Cc3ccccc3)c(=O)n1Cc1cccc(Cl)c1)n2C | inactive: 82%
32 | COc1ccccc1NC(=O)c1cnc(SCC(=O)N2CCOCC2)n(C)c1=O | inactive: 91%
33 | CCn1cc(C(=O)NCCCOC)c(=O)c2cc(S(=O)(=O)N3CCc4ccccc4C3)ccc21 | inactive: 92%
34 | Cc1cc(C)c2oc(-c3ccc(Cl)c(NC(=O)c4cccs4)c3)nc2c1 | active: 55%
35 | COc1ccc(NC(=O)CS(=O)CC(=O)Nc2ccc(NC(C)=O)cc2)cc1 (stereo unspecified) | inactive: 95%
36 | CCc1ccc(NC(=O)C2CCCN2S(=O)(=O)c2ccc3c(c2)CCCC(=O)N3)cc1 (stereo unspecified) | inactive: 80%
37 | COc1ccc(CCNC(=O)c2ccc(Cn3c(=O)c4ccccc4n(Cc4cccc(F)c4)c3=O)cc2)cc1OC | inactive: 78%
38 | O=C(CSc1nnnn1C1CCCC1)NCc1cccs1 | inactive: 103%
39 | Cc1ccc2c(c1)nnn2C1CCN(C(=O)N(c2ccccc2)c2ccccc2)CC1 | inactive: 90%
40 | Cc1cc2c(cc1NS(=O)(=O)c1cccc(C#N)c1)n(C)c(=O)c(=O)n2C | inactive: 72%
41 | CCc1cccc(C)c1NC(=O)Cn1nnc(-c2nc(-c3ccccc3F)no2)c1N | inactive: 97%
42 | COc1ccc(NS(=O)(=O)c2cc3c(cc2C)N(C(C)=O)CCO3)cc1 | inactive: 103%
43 | CCCOc1ccc(C2C(=O)N(C3CCC(C)CC3)CC(=O)N2Cc2cccc(OC)c2)cc1OC (stereo unspecified) | inactive: 72%
44 | Cc1ccccc1/C=C(\C#N)c1nc(-c2ccc(Cl)cc2)cs1 | active: 14%
45 | COc1cc2c(C)nc(C)c(C#N)c2cc1OC | inactive: 88%
46 | Cc1csc2nc(-c3ccc(NS(=O)(=O)c4cc(F)ccc4F)cc3)cn12 | inactive: 87%
